# Results from the supplement of paper PMC8728848.
# The other results are listed elsewhere or left out.
# B1: SBD-G4S3-SBD (protein)
# chain: MASIPSSASVQLDSYNYDGSTFSGKIYVKNIAYSKKVTVVYADGSDNWNNNGNIIAASFSGPISGSNYEYWTFSASVKGIKEFYIKYEVSGKTYYDNNNSANYQVSTGGGGSGGGGSGGGGSEFASIPSSASVQLDSYNYDGSTFSGKIYVKNIAYSKKVTVVYADGSDNWNNNGNIIAASFSGPISGSNYEYWTFSASVKGIKEFYIKYEVSGKTYYDNNNSANYQVST
# Experiments:
# Assay in all cases: glycan array binding signal (z-score within array); higher = stronger binding
# Conditions in all cases: glycan notation: IUPAC condensed, linker removed
# [1] = biological target: Fuc(a1-2)[Gal(a1-3)]Gal(b1-4)GlcNAc(b1-2)Man(a1-3)[Fuc(a1-2)[Gal(a1-3)]Gal(b1-4)GlcNAc(b1-2)Man(a1-6)]Man(b1-4)GlcNAc(b1-4)[Fuc(a1-6)]GlcNAc
# Summary of the method: (§1)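 The binding signal is a Z-score computed within each array. Data were drawn from 3228 arrays in the Consortium for Functional Glycomics database, restricted to those with a known protein sequence. Scores were averaged over arrays of the same protein sequence at different concentrations or buffers, and over linkers, and negative values can be taken as non-binding.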
# [2] = biological target: Fuc(a1-2)[Gal(a1-3)]Gal(b1-4)GlcNAc(b1-3)GalNAc
# Summary of the method: as §1
# [3] = biological target: Fuc(a1-2)[Gal(a1-3)]Gal(b1-4)GlcNAc(b1-3)[Fuc(a1-2)[Gal(a1-3)]Gal(b1-4)GlcNAc(b1-6)]GalNAc
# Summary of the method: as §1
# [4] = biological target: Fuc(a1-2)[Gal(a1-3)]Gal(b1-4)GlcNAc(b1-6)GalNAc
# Summary of the method: as §1
# [5] = biological target: Fuc(a1-2)[Gal(a1-3)]Gal(b1-4)[Fuc(a1-3)]Glc
# Summary of the method: as §1
# [6] = biological target: Fuc(a1-2)[Gal(a1-3)]Gal(b1-4)[Fuc(a1-3)]GlcNAc
# Summary of the method: as §1
# [7] = biological target: Fuc(a1-2)[Gal(a1-3)]Gal(b1-4)[Fuc(a1-3)]GlcNAc(b1-3)GalNAc
# Summary of the method: as §1
# [8] = biological target: Fuc(a1-2)[Gal(a1-4)]Gal(b1-4)GlcNAc
# Summary of the method: as §1
# [9] = biological target: Fuc(a1-2)[GalNAc(a1-3)]Gal
# Summary of the method: as §1
# [10] = biological target: Fuc(a1-2)[GalNAc(a1-3)]Gal(b1-3)GalNAc(a1-3)[Fuc(a1-2)]Gal(b1-4)GlcNAc
# Summary of the method: as §1
# [11] = biological target: Fuc(a1-2)[GalNAc(a1-3)]Gal(b1-3)GalNAc(b1-3)Gal(a1-4)Gal(b1-4)Glc
# Summary of the method: as §1
# [12] = biological target: Fuc(a1-2)[GalNAc(a1-3)]Gal(b1-3)GlcNAc
# Summary of the method: as §1
# [13] = biological target: Fuc(a1-2)[GalNAc(a1-3)]Gal(b1-3)GlcNAc(b1-2)Man(a1-3)[Fuc(a1-2)[GalNAc(a1-3)]Gal(b1-3)GlcNAc(b1-2)Man(a1-6)]Man(b1-4)GlcNAc(b1-4)GlcNAc
# Summary of the method: as §1
# [14] = biological target: Fuc(a1-2)[GalNAc(a1-3)]Gal(b1-3)GlcNAc(b1-2)Man(a1-3)[Fuc(a1-2)[GalNAc(a1-3)]Gal(b1-3)GlcNAc(b1-2)Man(a1-6)]Man(b1-4)GlcNAc(b1-4)[Fuc(a1-6)]GlcNAc
# Summary of the method: as §1
# [15] = biological target: Fuc(a1-2)[GalNAc(a1-3)]Gal(b1-3)GlcNAc(b1-3)GalNAc
# Summary of the method: as §1
# [16] = biological target: Fuc(a1-2)[GalNAc(a1-3)]Gal(b1-3)GlcNAc(b1-6)GalNAc
# Summary of the method: as §1
# [17] = biological target: Fuc(a1-2)[GalNAc(a1-3)]Gal(b1-4)Glc
# Summary of the method: as §1
# [18] = biological target: Fuc(a1-2)[GalNAc(a1-3)]Gal(b1-4)GlcNAc
# Summary of the method: as §1
# [19] = biological target: Fuc(a1-2)[GalNAc(a1-3)]Gal(b1-4)GlcNAc(b1-2)Man
# Summary of the method: as §1
# [20] = biological target: Fuc(a1-2)[GalNAc(a1-3)]Gal(b1-4)GlcNAc(b1-2)Man(a1-3)[Fuc(a1-2)[GalNAc(a1-3)]Gal(b1-4)GlcNAc(b1-2)Man(a1-6)]Man(b1-4)GlcNAc(b1-4)GlcNAc
# Summary of the method: as §1
# [21] = biological target: Fuc(a1-2)[GalNAc(a1-3)]Gal(b1-4)GlcNAc(b1-2)Man(a1-3)[Fuc(a1-2)[GalNAc(a1-3)]Gal(b1-4)GlcNAc(b1-2)Man(a1-6)]Man(b1-4)GlcNAc(b1-4)[Fuc(a1-6)]GlcNAc
# Summary of the method: as §1
# [22] = biological target: Fuc(a1-2)[GalNAc(a1-3)]Gal(b1-4)GlcNAc(b1-3)Gal(b1-4)GlcNAc
# Summary of the method: as §1
# [23] = biological target: Fuc(a1-2)[GalNAc(a1-3)]Gal(b1-4)GlcNAc(b1-3)Gal(b1-4)GlcNAc(b1-3)Gal(b1-4)GlcNAc
# Summary of the method: as §1
# [24] = biological target: Fuc(a1-2)[GalNAc(a1-3)]Gal(b1-4)GlcNAc(b1-3)GalNAc
# Summary of the method: as §1
# [25] = biological target: Fuc(a1-2)[GalNAc(a1-3)]Gal(b1-4)GlcNAc(b1-3)[Fuc(a1-2)[GalNAc(a1-3)]Gal(b1-4)GlcNAc(b1-6)]GalNAc
# Summary of the method: as §1
# [26] = biological target: Fuc(a1-2)[GalNAc(a1-3)]Gal(b1-4)GlcNAc(b1-6)GalNAc
# Summary of the method: as §1
# [27] = biological target: Fuc(a1-2)[GalNAc(a1-3)]Gal(b1-4)[Fuc(a1-3)]GlcNAc
# Summary of the method: as §1
# [28] = biological target: Fuc(a1-2)[GalNAc(a1-3)]Gal(b1-4)[Fuc(a1-3)]GlcNAc(b1-3)GalNAc
# Summary of the method: as §1
# [29] = biological target: Fuc(a1-2)[GalNAc(a1-4)]Gal(b1-4)GlcNAc
# Summary of the method: as §1
# [30] = biological target: Fuc(a1-2)[GalNAc(b1-3)]Gal
# Summary of the method: as §1
# [31] = biological target: Fuc(a1-3)GlcNAc
# Summary of the method: as §1
# [32] = biological target: Fuc(a1-3)[Gal(b1-4)]Glc6S
# Summary of the method: as §1
# [33] = biological target: Fuc(a1-3)[Gal(b1-4)]GlcNAc
# Summary of the method: as §1
# [34] = biological target: Fuc(a1-3)[Gal(b1-4)]GlcNAc(b1-2)Man
# Summary of the method: as §1
# [35] = biological target: Fuc(a1-3)[Gal(b1-4)]GlcNAc(b1-2)Man(a1-3)[Fuc(a1-3)[Gal(b1-4)]GlcNAc(b1-2)Man(a1-6)]Man(b1-4)GlcNAc(b1-4)GlcNAc
# Summary of the method: as §1
# [36] = biological target: Fuc(a1-3)[Gal(b1-4)]GlcNAc(b1-2)Man(a1-3)[Fuc(a1-3)[Gal(b1-4)]GlcNAc(b1-2)Man(a1-6)]Man(b1-4)GlcNAc(b1-4)[Fuc(a1-6)]GlcNAc
# Summary of the method: as §1
# [37] = biological target: Fuc(a1-3)[Gal(b1-4)]GlcNAc(b1-3)Gal(b1-3)[Fuc(a1-4)]GlcNAc
# Summary of the method: as §1
# [38] = biological target: Fuc(a1-3)[Gal(b1-4)]GlcNAc(b1-3)Gal(b1-4)[Fuc(a1-3)]GlcNAc
# Summary of the method: as §1
# [39] = biological target: Fuc(a1-3)[Gal(b1-4)]GlcNAc(b1-3)Gal(b1-4)[Fuc(a1-3)]GlcNAc(b1-3)Gal(b1-4)[Fuc(a1-3)]GlcNAc
# Summary of the method: as §1
# [40] = biological target: Fuc(a1-3)[Gal(b1-4)]GlcNAc(b1-3)GalNAc
# Summary of the method: as §1
# [41] = biological target: Fuc(a1-3)[Gal(b1-4)]GlcNAc(b1-6)GalNAc
# Summary of the method: as §1
# [42] = biological target: Fuc(a1-3)[Gal(b1-4)]GlcNAc(b1-6)[Gal(b1-3)GlcNAc(b1-3)]Gal(b1-4)Glc
# Summary of the method: as §1
# [43] = biological target: Fuc(a1-3)[Gal(b1-4)]GlcNAc6S
# Summary of the method: as §1
# [44] = biological target: Fuc(a1-3)[Gal3S(b1-4)]Glc
# Summary of the method: as §1
# [45] = biological target: Fuc(a1-3)[Gal3S(b1-4)]GlcNAc
# Summary of the method: as §1
# [46] = biological target: Fuc(a1-3)[Gal3S(b1-4)]GlcNAc6S
# Summary of the method: as §1
# [47] = biological target: Fuc(a1-3)[GalNAc(b1-4)]GlcNAc
# Summary of the method: as §1
# [48] = biological target: Fuc(a1-3)[GalNAc(b1-4)]GlcNAc6S
# Summary of the method: as §1
# [49] = biological target: Fuc(a1-4)GlcNAc
# Summary of the method: as §1
# [50] = biological target: Fuc(b1-3)GlcNAc
# Summary of the method: as §1
# [51] = biological target: Gal(a1-2)Gal
# Summary of the method: as §1
# [52] = biological target: Gal(a1-3)Gal
# Summary of the method: as §1
# [53] = biological target: Gal(a1-3)Gal(b1-3)GlcNAc
# Summary of the method: as §1
# [54] = biological target: Gal(a1-3)Gal(b1-3)GlcNAc(b1-2)Man
# Summary of the method: as §1
# [55] = biological target: Gal(a1-3)Gal(b1-3)GlcNAc(b1-2)Man(a1-3)[Gal(a1-3)Gal(b1-3)GlcNAc(b1-2)Man(a1-6)]Man(b1-4)GlcNAc(b1-4)GlcNAc
# Summary of the method: as §1
# [56] = biological target: Gal(a1-3)Gal(b1-3)GlcNAc(b1-3)GalNAc
# Summary of the method: as §1
# [57] = biological target: Gal(a1-3)Gal(b1-3)GlcNAc(b1-6)GalNAc
# Summary of the method: as §1
# [58] = biological target: Gal(a1-3)Gal(b1-3)[Fuc(a1-4)]GlcNAc(b1-2)Man(a1-3)[Gal(a1-3)Gal(b1-3)[Fuc(a1-4)]GlcNAc(b1-2)Man(a1-6)]Man(b1-4)GlcNAc(b1-4)GlcNAc
# Summary of the method: as §1
# [59] = biological target: Gal(a1-3)Gal(b1-4)Glc
# Summary of the method: as §1
# [60] = biological target: Gal(a1-3)Gal(b1-4)GlcNAc
# Summary of the method: as §1
binder,measurement,setting,value
B1,glycan array binding signal (z-score),[1],-0.319
same,glycan array binding signal (z-score),[2],-0.369
same,glycan array binding signal (z-score),[3],-0.308
same,glycan array binding signal (z-score),[4],-0.359
same,glycan array binding signal (z-score),[5],-0.34
same,glycan array binding signal (z-score),[6],-0.41
same,glycan array binding signal (z-score),[7],0.033
same,glycan array binding signal (z-score),[8],-0.371
same,glycan array binding signal (z-score),[9],0.401
same,glycan array binding signal (z-score),[10],1.17
same,glycan array binding signal (z-score),[11],-0.303
same,glycan array binding signal (z-score),[12],-0.354
same,glycan array binding signal (z-score),[13],-0.339
same,glycan array binding signal (z-score),[14],-0.403
same,glycan array binding signal (z-score),[15],0.66
same,glycan array binding signal (z-score),[16],0.142
same,glycan array binding signal (z-score),[17],-0.412
same,glycan array binding signal (z-score),[18],-0.347
same,glycan array binding signal (z-score),[19],-0.414
same,glycan array binding signal (z-score),[20],6.16
same,glycan array binding signal (z-score),[21],-0.329
same,glycan array binding signal (z-score),[22],-0.377
same,glycan array binding signal (z-score),[23],0.034
same,glycan array binding signal (z-score),[24],-0.37
same,glycan array binding signal (z-score),[25],-0.315
same,glycan array binding signal (z-score),[26],-0.365
same,glycan array binding signal (z-score),[27],-0.214
same,glycan array binding signal (z-score),[28],4.46
same,glycan array binding signal (z-score),[29],0.702
same,glycan array binding signal (z-score),[30],1.26
same,glycan array binding signal (z-score),[31],-0.388
same,glycan array binding signal (z-score),[32],2
same,glycan array binding signal (z-score),[33],-0.355
same,glycan array binding signal (z-score),[34],-0.386
same,glycan array binding signal (z-score),[35],0.661
same,glycan array binding signal (z-score),[36],0.367
same,glycan array binding signal (z-score),[37],-0.371
same,glycan array binding signal (z-score),[38],-0.397
same,glycan array binding signal (z-score),[39],-0.367
same,glycan array binding signal (z-score),[40],-0.398
same,glycan array binding signal (z-score),[41],2.62
same,glycan array binding signal (z-score),[42],-0.35
same,glycan array binding signal (z-score),[43],0.199
same,glycan array binding signal (z-score),[44],-0.398
same,glycan array binding signal (z-score),[45],-0.325
same,glycan array binding signal (z-score),[46],-0.339
same,glycan array binding signal (z-score),[47],-0.282
same,glycan array binding signal (z-score),[48],-0.388
same,glycan array binding signal (z-score),[49],-0.435
same,glycan array binding signal (z-score),[50],-0.331
same,glycan array binding signal (z-score),[51],-0.356
same,glycan array binding signal (z-score),[52],-0.316
same,glycan array binding signal (z-score),[53],1.05
same,glycan array binding signal (z-score),[54],-0.239
same,glycan array binding signal (z-score),[55],1.32
same,glycan array binding signal (z-score),[56],-0.296
same,glycan array binding signal (z-score),[57],-0.162
same,glycan array binding signal (z-score),[58],7.53
same,glycan array binding signal (z-score),[59],-0.186
same,glycan array binding signal (z-score),[60],-0.301
